Assay results as given in the antibiotic and cytotoxicity screens of Wong et al. (2023).
The list shows a part of the results.

test system: S. aureus RN4220; assay: growth inhibition call (relative growth <= 0.2); settings: 50 µM

Row | Structure (SMILES) | growth inhibition call
1 | C=CN1CCCC1=O | inactive
2 | COc1ccc(NC(=O)Nc2ccc3c(c2)C(=O)N([C@@H](C)CO)C[C@@H](C)[C@H](CN(C)Cc2ccccc2)OCCCC[C@H](C)O3)cc1 | inactive
3 | COc1ccc(S(=O)(=O)N(C)C[C@@H]2Oc3ccc(NC(=O)c4ccncc4)cc3C(=O)N([C@H](C)CO)C[C@@H]2C)cc1 | inactive
4 | CC1CC2C3CCC4=CC(=O)C=CC4(C)C3(F)C(O)CC2(C)C1(O)C(=O)CO (stereo not given) | inactive
5 | C[C@@H]1CN([C@H](C)CO)C(=O)c2cc(NS(=O)(=O)c3cn(C)cn3)ccc2O[C@H]1CN(C)Cc1ccncc1 | inactive
6 | COc1ccc(NC(=O)Nc2ccc3c(c2)[C@H]2C[C@H](CC(=O)N4CCN(C)CC4)O[C@@H](CO)[C@H]2O3)cc1 | inactive
7 | COc1cc2c(NC3CCN(C(C)C)CC3)nc(N3CCC(F)(F)CC3)nc2cc1OCCCN1CCCC1 | inactive
8 | [N-]=[N+]=N[C@]1(CO)O[C@@H](n2ccc(N)nc2=O)[C@@H](O)[C@@H]1O | inactive
9 | C[C@@H]1CN([C@H](C)CO)S(=O)(=O)c2ccc(C#CC3CC3)cc2O[C@H]1CN(C)Cc1ccc(F)cc1 | inactive
10 | O[C@@H]1[C@@H](O)[C@H]2OC[C@@H](O2)[C@H]1O | inactive
11 | O[C@@H]1[C@@H](O)[C@H](OC/C=C/c2ccccc2)O[C@H](CO[C@@H]2OC[C@@H](O)[C@@H](O)[C@@H]2O)[C@H]1O | inactive
12 | CCCC[C@@H](C#N)c1ccc(F)cn1 | inactive
13 | Cc1ccc2n[nH]c(C(=O)N3CCN4C(=O)CNC(=O)[C@@H]4C3)c2c1 | inactive
14 | COc1ccc(NC(=O)O[C@H]2[C@@H]3OC(=O)[C@H](Cc4cccc(Br)c4)C/C=C/C[C@@H](Cc4cccc(Br)c4)C(=O)O[C@H]3[C@@H](OC)O[C@@H]2CO)cc1 | inactive
15 | C[C@@H]1CN([C@H](C)CO)C(=O)c2cc(NC(=O)NC3CCCCC3)ccc2O[C@@H](C)CCCCO[C@H]1CN(C)C(=O)c1ccccc1 | inactive
16 | C[C@H](CO)N1C[C@H](C)[C@H](CN(C)C(=O)Nc2ccc3c(c2)OCCO3)OCc2cn(nn2)CCCC1=O | inactive
17 | C[C@H](CO)N1C[C@H](C)[C@H](CN(C)C(=O)Nc2cccc3ccccc23)OCCCC[C@H](C)Oc2ccc(NS(C)(=O)=O)cc2C1=O | inactive
18 | C[C@H](CO)N1C[C@H](C)[C@H](CN(C)S(C)(=O)=O)Oc2cc(C#Cc3ccccc3)ccc2S1(=O)=O | inactive
19 | CNC(=O)CN(C#N)c1nc(N(C)C)nc(N(C)C)n1 | inactive
20 | COC(=O)[C@@H](N)Cc1ccc(-n2cc(CCC(=O)NO)nn2)cc1 | active

Row | Structure (SMILES) | growth inhibition call
21 | CCC(C)C(=O)OC1CCC=C2C=CC(C)C(CCC3CC(O)CC(=O)O3)C21 (stereo not given) | inactive
22 | CCOC(=O)CCC(=O)OC1C(OC2C(C)C(OC3CC(C)(OC)C(O)C(C)O3)C(C)C(=O)OC(CC)C(C)(O)C(O)C(C)C(=O)C(C)CC2(C)O)OC(C)CC1N(C)C (stereo not given) | active
23 | C[C@@H]1CN([C@@H](C)CO)C(=O)Cc2cc(NS(C)(=O)=O)ccc2O[C@@H]1CN(C)Cc1ccc(C(F)(F)F)cc1 | inactive
24 | N[C@@H](C(=O)N[C@@H]1C(=O)N2C(C(=O)O)=C(Cl)CS[C@H]12)c1ccccc1 | active
25 | CC(C)(O)C#Cc1cccc(-c2nc(C(=O)NCCCN3CCOCC3)cc3c2[C@@H](CCO)N(S(=O)C(C)(C)C)C3)c1 (stereo not given in full) | inactive
26 | C=CC[C@@H](CC(=O)N[C@H](CO)Cc1ccccc1)C(=O)N[C@@H](COC(=O)[C@@H](CC=C)NC(=O)OCC1c2ccccc2-c2ccccc21)Cc1c[nH]c2ccccc12 | inactive
27 | C[C@@H]1CN([C@H](C)CO)C(=O)c2cc(NC(=O)Cc3ccccc3)ccc2O[C@@H](C)CCCCO[C@@H]1CN(C)S(=O)(=O)c1ccc(F)cc1 | inactive
28 | CO[C@@H]1[C@@H](O)[C@H](O)[C@H](O)[C@H](O)[C@@H]1O | inactive
29 | C[C@@H]1CN([C@@H](C)CO)C(=O)c2cc(NC(=O)Nc3ccc(C(F)(F)F)cc3)ccc2O[C@@H](C)CCCCO[C@@H]1CN(C)S(=O)(=O)c1cccs1 | inactive
30 | COc1ccc(NC(=O)Nc2ccc3c(c2)C(=O)N([C@@H](C)CO)C[C@@H](C)[C@H](CN(C)S(=O)(=O)c2cccs2)OCCCC[C@@H](C)O3)cc1 | inactive
31 | COc1ccc(CN(C)C[C@H]2OCCCC[C@H](C)Oc3ccc(NS(=O)(=O)c4ccccc4)cc3C(=O)N([C@@H](C)CO)C[C@@H]2C)cc1 | inactive
32 | COc1ccc(S(=O)(=O)N(C)C[C@H]2OCCCC[C@H](C)Oc3ccc(NC(=O)Nc4ccc5c(c4)OCO5)cc3C(=O)N([C@H](C)CO)C[C@@H]2C)cc1 | inactive
33 | C[C@@H]1CN([C@@H](C)CO)C(=O)c2cc(NC(=O)Nc3cccc4ccccc34)ccc2O[C@@H](C)CCCCO[C@@H]1CN(C)S(=O)(=O)c1ccc(F)cc1 | inactive
34 | CN(C)C(=O)N[C@H]1CN(S(C)(=O)=O)[C@H]2CCCO[C@@H]12 | inactive
35 | COc1ccc(NC(=O)N(C)C[C@H]2Oc3ccc(NC(=O)Nc4cccc5ccccc45)cc3C(=O)N([C@H](C)CO)C[C@@H]2C)cc1 | inactive
36 | C[C@@H]1CN([C@@H](C)CO)C(=O)c2cccc(NC(=O)Nc3ccc4c(c3)OCO4)c2O[C@H]1CN(C)C(=O)Nc1cccc2ccccc12 | inactive
37 | COc1ccc(NC(=O)N(C)C[C@@H]2Oc3ccc(NC(=O)Nc4ccc(C(F)(F)F)cc4)cc3C(=O)N([C@H](C)CO)C[C@@H]2C)cc1 | inactive
38 | CN(C)CC(=O)N[C@@H]1C=C[C@@H](CC(=O)NCCN2CCCCC2)O[C@@H]1CO | inactive
39 | CO[C@@H]1CN(C)C(=O)c2ccc(NC(=O)c3nc4ccccc4s3)cc2OC[C@@H](C)N(Cc2ccccc2)C[C@H]1C | inactive
40 | OCCN1CCN(c2ncnc3c2ncn3[C@H]2CN(Cc3ccc(Cl)cc3)C[C@@H](CO)O2)CC1 | inactive
